Source: the supplement of paper PMC5998384

Tests used:
HeLa Kyoto [1] = assay: solubility in G1/S (NP-40 vs SDS abundance) (log2 ratio); higher = more soluble; conditions: cell cycle stage: G1/S
HeLa Kyoto [2] = assay: solubility change mitosis vs G1/S (difference of NP-40 vs SDS log2 ratios) (log2 ratio difference); higher = more soluble in mitosis
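Throughout, for solubility change mitosis vs G1/S (difference of NP-40 vs SDS log2 ratios): synchronized HeLa Kyoto cells (double thymidine block for G1/S, nocodazole release for mitosis), protein amounts in NP-40 versus SDS lysates quantified by mass spectrometry, three biological replicates.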
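Throughout, for solubility in G1/S (NP-40 vs SDS abundance): HeLa Kyoto cells arrested at G1/S by double thymidine block, proteins quantified by TMT10plex mass spectrometry in mild NP-40 versus SDS extracts, three biological replicates.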

Sequence: MCVCQTMEVGQYGKNASRAGDRGVLLEPFIHQVGGHSSMMRYDDHTVCKPLISREQRFYESLPPEMKEFTPEYKGVVSVCFEGDSDGYINLVAYPYVESETVEQDDTTEREQPRRKHSRRSLHRSGSGSDHKEEKASLSLETSESSQEAKSPKVELHSHSEVPFQMLDGNSGLSSEKISHNPWSLRCHKQQLSRMRSESKDRKLYKFLLLENVVHHFKYPCVLDLKMGTRQHGDDASAEKAARQMRKCEQSTSATLGVRVCGMQVYQLDTGHYLCRNKYYGRGLSIEGFRNALYQYLHNGLDLRRDLFEPILSKLRGLKAVLERQASYRFYSSSLLVIYDGKECRAESCLDRRSEMRLKHLDMVLPEVASSCGPSTSPSNTSPEAGPSSQPKVDVRMIDFAHSTFKGFRDDPTVHDGPDRGYVFGLENLISIMEQMRDENQ [IP6K1]
- solubility in G1/S (log2) (HeLa Kyoto [1]): -0.0957
- solubility change mitosis (log2) (HeLa Kyoto [2]): -0.0148
